Experimental data: the supplement of paper PMC11060735
Several values for one entry are separate records, joined by “and”; a condition that tells them apart may be missing. Equal values may be shown once. Where a name gives a salt, the structure may show the parent alone. Hit rate of the full screen: of about 1,800 compounds, about 50 (3%) showed activity. Some of the results follow.

Test system: mouse p16Ink4a+/- lung fibroblasts (INKBRITE, bleomycin-injured)
Assay: percentage of GFP+ (p16Ink4a+) fibroblasts among all cells in well; higher = less depletion of p16Ink4a+ cells, active = 20 or less
Conditions: 1 µM; 3 days
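Also: fibroblasts sorted 14 days after bleomycin, GFP+ and GFP− mixed 1:1 in 384-well plates (GFP− as in-well control), imaged after Hoechst and NucView530 staining, reference wells lacked compound.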

SMILES	percentage of GFP+
CNS(=O)(=O)CCc1ccc2[nH]cc(C3CCN(C)CC3)c2c1 [Naratriptan]	inactive: 47.4%
COCCCC/C(=N\OCCN)c1ccc(C(F)(F)F)cc1 [Fluvoxamine]	inactive: 46.9%
CC(=O)Oc1ccccc1C(=O)O [Acetylsalicylic acid]	inactive: 52.8%
Nc1nnc(-c2cccc(Cl)c2Cl)c(N)n1 [Lamotrigine]	inactive: 49.9%
Cc1cn([C@@H]2C[C@@H](O)[C@H](CO)O2)c(=O)[nH]c1=O [Telbivudine]	inactive: 44.5%
CCOc1nc2cccc(C(=O)OC(C)OC(=O)OC3CCCCC3)c2n1Cc1ccc(-c2ccccc2-c2nn[nH]n2)cc1 (stereo unspecified) [Candesartan Cilextil]	inactive: 44.8%
Cc1ccc(NCCCc2ccccc2)c(N)c1	inactive: 46.1%
CN1CC(=O)N2[C@H](c3ccc4c(c3)OCO4)c3[nH]c4ccccc4c3C[C@@H]2C1=O [Tadalafil]	inactive: 40.4%
CO[C@H]1/C=C/O[C@@]2(C)Oc3c(C)c(O)c4c(O)c(c5c(c4c3C2=O)=NC2(CCN(CC(C)C)CC2)N=5)NC(=O)/C(C)=C\C=C\[C@H](C)[C@H](O)[C@@H](C)[C@@H](O)[C@@H](C)[C@H](OC(C)=O)[C@@H]1C [Rifabutin]	inactive: 39.9%
COc1cccc2c1C(=O)c1c(O)c3c(c(O)c1C2=O)C[C@@](O)(C(=O)CO)C[C@@H]3O[C@H]1C[C@H](N)[C@H](O)[C@H](C)O1 [Doxorubicin]	inactive: 25.2%
Cc1nnc(C(=O)NC(C)(C)c2nc(C(=O)NCc3ccc(F)cc3)c(O)c(=O)n2C)o1 [Raltegravir]	inactive: 39.5%
Cc1nc2c([nH]1)-c1ccccc1N(C(=O)c1ccc(NC(=O)c3ccccc3-c3ccccc3)cc1)CC2 [Conivaptan]	inactive: 31.8%
Cc1ncc(CO)c(CO)c1O [Pyridoxine]	inactive: 41.4%
C[C@H](O)[C@H](O)[C@@H](O)[C@@H](O)C=O [L-(+)-Rhamnose Monohydrate]	inactive: 47%
CC(C)(C#N)c1cc(Cn2cncn2)cc(C(C)(C)C#N)c1 [Anastrozole]	inactive: 45.5%
C[C@@]1(C(=O)Nc2ccc(F)nc2)CCCN1c1nc(Nc2cc(C3CC3)[nH]n2)c2cccn2n1	inactive: 36.7%
O=C(NOCC(O)CO)c1cc(Br)c(F)c(F)c1Nc1ccc(I)cc1F (stereo unspecified)	inactive: 36.5%
CC[C@H](NC(=O)[C@H](C)NC)C(=O)N1C[C@@H](O)C[C@H]1Cc1c(-c2[nH]c3cc(F)ccc3c2C[C@@H]2C[C@H](O)CN2C(=O)[C@H](CC)NC(=O)[C@H](C)NC)[nH]c2cc(F)ccc12 [Birinapant]	inactive: 38.6%
CCN1CCC[C@H]1CNC(=O)c1cc(S(N)(=O)=O)ccc1OC [Levosulpiride]	inactive: 43.5%
NC(=O)N1c2ccccc2C=Cc2ccccc21 [Carbamazepine]	inactive: 46.9%
CC(=O)[C@H]1CC[C@H]2[C@@H]3CCC4=CC(=O)CC[C@]4(C)[C@H]3CC[C@]12C [Progesterone]	inactive: 51%
Nc1cccc(-c2cc3c(Oc4cccc(O)c4)ncnc3[nH]2)c1	inactive: 32%

SMILES	percentage of GFP+
CN1C(=O)C(Cc2c[nH]c3ccccc23)NC1=S (stereo unspecified) [Necrostatin-1]	inactive: 47.6%
Oc1nc2ccccc2n1CCCN1CCC(n2c(O)nc3cc(Cl)ccc32)CC1 [Domperidone]	inactive: 46.3%
O=C(/C=C/c1ccccc1)NC(NC(=S)Nc1ccc(Cl)cc1)C(Cl)(Cl)Cl (stereo unspecified)	inactive: 58.3%
N[C@@H](Cc1cc(I)c(Oc2cc(I)c(O)c(I)c2)c(I)c1)C(=O)O [Thyroxine, Levothyroxine]	inactive: 38.8%
Oc1ccc(OC2CCCCO2)cc1 (stereo unspecified) [Deoxyarbutin]	inactive: 49.7%
CCCCCOC(=O)Nc1nc(=O)n([C@@H]2O[C@H](C)[C@@H](O)[C@H]2O)cc1F [Capecitabine]	inactive: 40.5%
COc1cccc(-c2cc(=O)c3ccccc3o2)c1N	inactive: 54%
CC(=O)O[C@@]12CO[C@@H]1C[C@H](O)[C@@]1(C)C(=O)[C@H](O)C3=C(C)[C@@H](OC(=O)[C@H](O)[C@@H](NC(=O)OC(C)(C)C)c4ccccc4)C[C@@](O)([C@@H](OC(=O)c4ccccc4)[C@H]21)C3(C)C [Docetaxel]	inactive: 35.5%
CCn1c(=O)c2c(nc(/C=C/c3ccc(OC)c(OC)c3)n2C)n(CC)c1=O [Istradefylline]	inactive: 55%
CO[C@H]1C[C@@H]2CC[C@@H](C)[C@@](O)(O2)C(=O)C(=O)N2CCCC[C@H]2C(=O)O[C@H]([C@H](C)C[C@@H]2CC[C@@H](OCCO)[C@H](OC)C2)CC(=O)[C@H](C)/C=C(\C)[C@@H](O)[C@@H](OC)C(=O)[C@H](C)C[C@H](C)/C=C/C=C/C=C/1C [Everolimus]	inactive: 29.7%
CCc1ccc(/C=C2/SC(=S)NC2=O)cc1	inactive: 50.8%
O=C(O)CC1CC(c2ccccc2)=NO1 (stereo unspecified)	inactive: 53.4%
Nc1nc(N)c2nc(-c3cccc(O)c3)c(-c3cccc(O)c3)nc2n1	inactive: 33.6%
CC(C)c1ccccc1Cc1cc(C(=O)Nc2ccc(S(=O)(=O)c3ccccc3C(C)(C)C)cc2)c(O)c(O)c1O	active: 16.4%
Cc1cnc(NC(=O)C2=C(O)c3ccccc3S(=O)(=O)N2C)s1 [Meloxicam]	inactive: 39.9%
O=C1C(=O)N(Cc2ccc(Cl)c(Cl)c2)c2ccccc21 [Apoptosis Activator 2]	inactive: 49.6%
CCC(CC)(NC(=O)C(C)C)C(=O)N[C@@H](CCCN=C(N)N)C(=O)NC1(C(=O)NC(c2ccc(F)cc2)c2ccc(F)cc2)CCCC1	inactive: 42%
NC(=O)c1ccc(N(C(N)=O)c2c(F)cccc2F)nc1-c1ccc(F)cc1F	inactive: 53.1%
COC[C@H](NC(=O)c1cnc(C)s1)C(=O)N[C@@H](COC)C(=O)N[C@@H](Cc1ccccc1)C(=O)C1(C)CO1 (stereo partly specified) [Oprozomib]	active: 5.21%
COc1ccc(-c2cc(=O)c3c(OC)c(OC)c(OC)c(OC)c3o2)cc1OC [Nobiletin]	inactive: 46%
Cc1ccc(Nc2c(F)cccc2Cl)c(CC(=O)O)c1 [Lumiracoxib]	inactive: 42.8%
CCCCC(=O)O[C@H]1CC[C@H]2[C@@H]3CCc4cc(O)ccc4[C@H]3CC[C@]12C [Estradiol valerate]	inactive: 47.9%

SMILES	percentage of GFP+
COc1cc(N2CCN(C)CC2)ccc1Nc1nccc(-c2cn(C)c3cnccc23)n1	inactive: 46.2%
CO[C@H]1/C=C/O[C@@]2(C)Oc3c(C)c(O)c4c(O)c(c(/C=N/N5CCN(C)CC5)c(O)c4c3C2=O)NC(=O)/C(C)=C\C=C\[C@H](C)[C@H](O)[C@@H](C)[C@@H](O)[C@@H](C)[C@H](OC(C)=O)[C@@H]1C [Rifampicin]	inactive: 45.9%
COc1ccc(-c2nc3cc(C4=NNC(=O)CC4C)ccc3[nH]2)cc1 (stereo unspecified) [Pimobendan]	inactive: 40.4%
NC(=O)c1ccc(-c2nc(-c3ccc4c(c3)OCO4)c(-c3ccccn3)[nH]2)cc1	inactive: 44.6%
CC1(C)S[C@@H]2[C@H](NC(=O)[C@H](N)c3ccc(O)cc3)C(=O)N2[C@H]1C(=O)O [Amoxicillin]	inactive: 43.1% and inactive: 47.4%
O=C(COc1ccc(C(=O)c2ccccc2)cc1)NC1CCN(Cc2ccccc2)CC1 [AdipoRon]	inactive: 49.5%
CNC(=O)c1cc(COc2nnc(Nc3ccc(Cl)cc3)c3ccoc23)ccn1 [Telatinib]	inactive: 45.2%
O=C1NC(=O)C(c2ccccc2)(c2ccccc2)N1 [Phenytoin]	inactive: 37.6% and inactive: 38.8%
CCN(Cc1ccncc1)C(=O)C(CO)c1ccccc1 (stereo unspecified) [Tropicamide]	inactive: 49.3%
COc1c(N2C[C@@H]3CCCN[C@@H]3C2)c(F)cc2c(=O)c(C(=O)O)cn(C3CC3)c12 [Moxifloxacin]	inactive: 48.2%
Cc1cc(Nc2cc(CN3CCOCC3)c3nc(C)c(Cc4ccc(Cl)cc4F)n3n2)[nH]n1	inactive: 43.7%
O=C(/C=C/c1cccc(S(=O)(=O)Nc2ccccc2)c1)NO [Belinostat]	active: 15.9%
CN(C/C=C/C#CC(C)(C)C)Cc1cccc2ccccc12 [Terbinafine, Terbinafine Hydrochloride]	inactive: 45.5% and inactive: 36.2%
C=CC(=O)Nc1cccc(Oc2nc(Nc3ccc(N4CCN(C)CC4)cc3OC)ncc2Cl)c1	inactive: 47.1%
Cc1ccc(Sc2cncc3sc(C(N)=O)cc23)cc1	inactive: 30.6%
c1ccc2c(c1)CCCC2C1=NCCN1 (stereo unspecified) [Tetryzoline]	inactive: 41.8%
CCCCCCCCCCCC1=C(O)C(O)=CC(=O)C1=O [Embelin]	inactive: 51.4%
CN(C)CCN1C(=O)c2cccc3cc(N)cc(c23)C1=O [Amonafide]	inactive: 22.8%
Oc1ncnc2[nH]ncc12 [Allopurinol]	inactive: 49.8%
CC1CCc2cc(F)cc3c(=O)c(C(=O)O)cn1c23 (stereo unspecified) [Flumequine]	inactive: 50.5%
CC(C)N(CCCNC(=O)Nc1ccc(C(C)(C)C)cc1)C[C@H]1O[C@@H](n2cc(Br)c3c(N)ncnc32)[C@H](O)[C@@H]1O	inactive: 46.1%
C[C@@H]1CCO[C@H]2Cn3cc(C(=O)NCc4ccc(F)cc4F)c(=O)c(O)c3C(=O)N12 [Dolutegravir]	inactive: 45.3%
